# In all, about 310,000 compounds went through this assay and about 18,000 (5.8%) were called active. The inconclusive results got no clear call from the source; some entries with a clear call stand among them for comparison. Calls come from the whole dose curve; as a rule, active = well fitted inhibition curve with a large enough effect; inconclusive = small, poorly fitted or top-dose-only effect, or another doubt; inactive = no such curve, though single readings can be large or run the other way. Potencies of inconclusive entries are left out as doubtful fits.
# Test: Primary qHTS for delayed death inhibitors of the malarial parasite plastid, 48 hour incubation
# Conditions: P. falciparum luciferase growth in erythrocytes; series mostly up to 28.7 µM
# Summary of the method: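 Compounds are pin-transferred into medium, infected erythrocytes (2% hematocrit, 0.1% parasitemia final) are added, and plates sit one parasite generation at 37 C in 5% CO2. Detection reagent is then added and luminescence measured.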
# Potency is the fitted concentration of half-maximal effect; tags give direction and shape of the fitted curve.
row,Structure (SMILES),Potency
1,CC(=O)c1ccc(OCCOc2ccc(C#N)cc2)cc1,inactive
2,C/C=C\C=C/C(=O)Nc1cccc(C2=NOC3(C2)C[C@@H](C(N)=O)N(C(=O)c2ccc(Cl)cc2)C3)c1 (some centres undefined),"inconclusive [inhibitor, partial curve, poor fit]"
3,COc1ccc(CC(=O)OC(C)C(=O)NC2CCCCC2C)cc1 (centres undefined),"inconclusive [inhibitor, single point]"
4,CCCCS(=O)(=O)/C=C\C=C/S(=O)(=O)CCCC,active: 9.28 µM
5,CN(Cc1ccc(Cl)cc1)C(=O)c1ccc(S(=O)(=O)NCc2ccco2)cc1,"inconclusive [inhibitor, single point]"
6,Cc1ccc(-c2nc(C#N)c(NCc3ccco3)o2)cc1,inactive
7,CCc1ccccc1Nc1nn2c(=O)c3ccc(C(=O)NCCCOC(C)C)cc3nc2s1,active: 13.1 µM
8,CCN(CC)C(=O)c1ccc(NC(=O)CNC(C)c2cccc3ccccc23)cc1 (centres undefined),"inconclusive [inhibitor, single point]"
9,CN(C)C(C)(C)C#CCC(c1ccccc1)c1ccccc1,active: 9.28 µM
10,COc1ccccc1C(CNC(=O)COc1cc(C)ccc1Cl)N1CCCC1 (centres undefined),"inconclusive [inhibitor, single point]"
11,CCn1c2ccccc2c2cc(NC(=O)CSc3nnc(-c4ccc(OC)cc4)n3N)ccc21,"inconclusive [inhibitor, partial curve, poor fit]"
12,O=C(CN1CCN(CC(=O)Nc2ccccc2Cl)CC1)Nc1ccc(F)c(F)c1,"inconclusive [inhibitor, single point]"
13,CSc1ccc(S(=O)(=O)Nc2ccc(NC(C)=O)cc2)cc1,"inconclusive [inhibitor, partial curve, poor fit]"
14,COc1ccc(CCNCC(O)Cn2c3ccccc3c3ccccc32)cc1OC (centres undefined),"inconclusive [inhibitor, partial curve]"
15,CCOC(=O)CSc1nc(-c2ccccc2)nc2ccccc12,inactive
16,Cc1ccccc1S(=O)(=O)NC1OC(=O)C(Cl)=C1Cl (centres undefined),inactive
17,COc1ccccc1Nc1nc(NCCCN(C)C)nc(N)c1[N+](=O)[O-],"inconclusive [inhibitor, full curve]"
18,Cc1c(NP(=O)(c2ccc(Br)cc2)c2ccc(Br)cc2)c(=O)n(-c2ccccc2)n1C,"inconclusive [inhibitor, partial curve]"
19,CC12CCC(=O)N1C(C(=O)NCc1ccccc1Cl)CS2 (centres undefined),inactive
20,COc1cc(NC(=O)c2ccco2)c(OC)cc1NC(=O)CCC(=O)Nc1cc(C)cc(C)c1,"inconclusive [inhibitor, full curve, poor fit]"
21,Cc1cccc2cc(C#N)c(NCc3ccccc3)nc12,"inconclusive [inhibitor, partial curve, poor fit]"
22,CN(CC(=O)Nc1ccc(N2CCOCC2)cc1)C(=O)CSc1ccc(F)cc1,"inconclusive [inhibitor, partial curve, poor fit]"
23,c1ccc(CC2CCN(C(c3cccs3)c3nnnn3C3CCCC3)CC2)cc1 (centres undefined),active: 1.85 µM

row,Structure (SMILES),Potency
1,O=C1CN(C(=O)COC(=O)c2cccc(Br)c2)c2ccccc2N1,"inconclusive [inhibitor, partial curve, poor fit]"
2,CN(CC(=O)Nc1ccc(S(=O)(=O)N2CCCC2)cc1)Cc1ccc(Cl)cc1,"inconclusive [inhibitor, single point]"
3,O=C1CCN(Cc2ccc(O)cc2)CCN1[C@H](CO)Cc1ccccc1,inactive
4,Nc1c(S(=O)(=O)c2cccs2)c2nc3ccccc3nc2n1CCc1ccccc1,"inconclusive [inhibitor, full curve, poor fit]"
5,CCOC(=O)c1sc(NC(=O)c2cccc(S(=O)(=O)N3c4ccccc4CC3C)c2)cc1C (centres undefined),active: 2.94 µM
6,O=C(c1ccc(F)cc1)C1CCN(Cc2cn[nH]c2-c2ccccc2)CC1,"inconclusive [inhibitor, single point]"
7,CC(=O)c1ccc(N2CCN(C(=O)CCC(=O)Nc3ccc4nc(N5CCN(C)CC5)cc(C)c4c3)CC2)cc1,active: 9.28 µM
8,O=C(NCc1ccc(F)cc1)C1CCC(CNc2c(N3CCCCC3)c(=O)c2=O)CC1 (centres undefined),"inconclusive [inhibitor, partial curve]"
9,CCCOC(=O)c1ccc(Nc2nc(C)cc(=O)[nH]2)cc1,"inconclusive [inhibitor, partial curve, poor fit]"
10,CCCCN(C(=O)C1=NN(c2cc(C)ccc2C)C(=O)CC1)c1c(N)n(CCC)c(=O)[nH]c1=O,"inconclusive [inhibitor, single point]"
11,N=c1c(C(=O)NCCN2CCOCC2)cc2c(=O)n3ccccc3nc2n1Cc1ccc(F)cc1,active: 9.28 µM
12,CCOC(=O)C(C(C)=O)C(c1ccc(OCCC(C)C)cc1)C(C(C)=O)C(=O)OCC (centres undefined),"inconclusive [inhibitor, single point]"
13,COc1ccc(C(NC(=O)CNC(C)=O)C(=O)Nc2ccc(C(C)C)cc2)cc1 (centres undefined),"inconclusive [inhibitor, single point]"
14,CCc1ccc(N(CC(=O)NC2CCCCC2)C(=O)CCC(=O)Nc2ccccn2)cc1,inactive
15,CC(=O)Nc1cccc(NC(=O)CSc2nc(=O)n(CCCN3CCOCC3)c3c2CCC3)c1,inactive
16,C[N+](C)(C)c1ccccc1,"inconclusive [inhibitor, full curve]"
17,O=C(NN1CCN(Cc2ccccc2Cl)CC1)c1ccc(Br)cc1,"inconclusive [inhibitor, single point]"
18,COc1cc(C)ccc1OCc1cc(C(=O)N2CCCCCCC2)no1,"inconclusive [inhibitor, single point]"
19,Cc1ccc(C(=O)CSc2nnc(-c3ccco3)n2C)cc1,inactive
20,CC(=O)c1cccc(NC(=O)COc2cc3oc(=O)c(CC(C)O)c(C)c3cc2Cl)c1 (centres undefined),"inconclusive [inhibitor, partial curve, poor fit]"
21,CC1CCN(CC(=O)N2CCN(c3ccccc3)CC2)CC1,inactive
22,Cc1nc2cc(NC(=O)c3ccc([N+](=O)[O-])s3)ccc2s1,"inconclusive [inhibitor, single point]"
23,O=C1CN(Cc2ccccc2)C(=NCc2ccco2)S1,active: 1.85 µM

row,Structure (SMILES),Potency
1,CC(=O)Nc1ccc(NC(=S)NC(=O)c2ccc(C(C)(C)C)cc2)cc1,"inconclusive [inhibitor, single point]"
2,Cc1nc2ccccn2c1C(=O)CSc1ccccc1Cl,"inconclusive [inhibitor, single point]"
3,CN(C)/C=C(\C#N)C(=O)Nc1ccccc1,inactive
4,COc1ccc(-c2oc3ncn(CCN4CCOCC4)c(=N)c3c2-c2ccc(OC)cc2)cc1,active: 7.38 µM
5,Cc1ccc(C2=NC(=O)/C(=C/c3cc(O)c(O)c(Br)c3)S2)cc1,active: 10.4 µM
6,COc1ccc(N2CCN(C(=O)CCCC3=NS(=O)(=O)c4ccccc4N3)CC2)cc1,"inconclusive [inhibitor, single point]"
7,COc1ccc(CCNC(=O)C2CCN(S(=O)(=O)c3cc(OC)ccc3OC)CC2)cc1,"inconclusive [inhibitor, single point]"
8,COCCCN1C(=O)c2ccc(C(=O)OCC(=O)N(CCC#N)c3cc(C)cc(C)c3)cc2C1=O,inactive
9,CCCCNc1cc(=O)oc2ccccc12,"inconclusive [inhibitor, single point]"
10,C/C(=N/NC(=O)C(O)(c1ccccc1)c1ccccc1)c1ccc([N+](=O)[O-])o1,"inconclusive [inhibitor, partial curve]"
11,CCCNC(=O)NCCC12CC3CC(CC(C3)C1)C2,"inconclusive [inhibitor, single point]"
12,Cc1cc(Cl)c(C)c(S(=O)(=O)N2CCN(CC(=O)N3CCOCC3)CC2)c1Cl,inactive
13,CCOC(=O)c1cn(C2CC2)c2c(F)c(F)c(F)cc2c1=O,"inconclusive [inhibitor, single point]"
14,Cc1ccc(Cl)cc1N1CCN(C(=O)CNC(=O)c2ccc(Br)o2)CC1,"inconclusive [inhibitor, single point]"
15,CCC1=C(OC(=O)N(CC)CC)N2C(=O)OC(=NCCc3c[nH]c4ccccc34)[C@]2(Cc2ccccc2)[C@H]2C1=CC[C@H]1C(=O)N(CC)C(=O)[C@H]12,active: 9.28 µM
16,CCS(=O)(=O)c1ccc(O)c(NC(=O)Nc2ccc(C(C)(C)C)cc2)c1,inactive
17,Cc1cc2cc(C)c3nnc(SCC(=O)NCc4ccco4)n3c2cc1C,inactive
18,COc1c(Br)cc([N+](=O)[O-])c(OC)c1C(=O)NC(=O)Nc1cc(Cl)cc(Cl)c1,"inconclusive [inhibitor, single point]"
19,Cc1cccc(C(=O)Nc2cccc(S(=O)(=O)NCc3ccco3)c2)c1,inactive
20,CC(C)(C)NC(=O)c1nn2c(C(F)(F)F)cc(-c3ccccc3)nc2c1Br,inactive
21,C=C(C)CSc1nc2sc3c(c2c(=O)n1-c1ccc(C)cc1)CCN(C)C3,active: 1.31 µM
22,Cn1ccc(=NC=C(C#N)C#N)c2ccccc21,"inconclusive [inhibitor, partial curve]"
23,Cc1cccc(NC(=O)COc2ccc(-c3nn(C)c(=O)c4ccccc34)cc2)c1,"inconclusive [inhibitor, single point]"

# Source: PubChem BioAssay AID504832 (National Center for Advancing Translational Sciences (NCATS), 2011)
